Values marked as one replicate rest on one cluster of the flow cell; about a third of the high ones do not repeat.
Each sequence was assayed on ATP (assay: switch fluorescence ratio, 500 uM ATP over buffer (Cy3 cluster intensity, sum of 5 cycles each) (fold (ratio)); higher = stronger signal-on switching upon ATP binding; sequences stand for … in TCGTCGGCAGCGTCAGATGTGTATAAGAGACAGTTTTTTTTTTTTTTTTTTTTTTTTT…TC). Conditions: aptamer strand: ATP DNA aptamer (quencher-CACCTGGGGGAGTATTGCGGAGGAAGG + anchor), 100 nM annealed; ATP concentration: 500 uM; one replicate.
Procedure, shortened: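 Exposure to 500 uM ATP lasted 15 min at 22 °C before imaging, and a selection-buffer image was taken beforehand, for Cy3-labelled switching-strand clusters on a modified Illumina MiSeq flow-cell annealed to 100 nM quencher-labelled ATP aptamer. Five buffer/ATP cycles were run with NaOH stripping and re-annealing between them. The fluorescence ratio per cluster is summed target-cycle over summed buffer-cycle Cy3 intensity, averaged per switch-domain sequence. Clusters outside 100-1000 RFU were excluded.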

Row | Sequence | switch fluorescence ratio
1 | CAGCTATCT | 1.08
2 | GGGTGCTTAA | 0.982
3 | TGATACCAGT | 1.03
4 | GAGTGATTGA | 1.02
5 | AAATGTAGCA | 1.01
6 | GGTCCGCGAG | 2.13
7 | ACGCGAAACT | 1.87
8 | TCTGGCTTGC | 1.01
9 | AATCGATCA | 1.04
10 | GGCGTTGACA | 0.998
11 | CACTTCGGGA | 1.03
12 | TACGCGAGGT | 1.08
13 | TTCCAACACT | 1.69
14 | CTCGGATAGA | 0.988
15 | CGTCGGCTAG | 1.04
16 | TGGGTGGTAT | 2.04
17 | AAACCTATTG | 1.03
18 | TAACCCTCT | 1.01
19 | TTGCCAATAG | 1.07
20 | TCAGATGTGG | 1.02
21 | AGGCTAGTCG | 1.04
22 | AGTTGGTAAC | 1
23 | ATCTCCTGCG | 1.18

Row | Sequence | switch fluorescence ratio
24 | ACGCTTCA | 1.05
25 | CAGGGTGCTT | 1.1
26 | CAAATATAGG | 1
27 | GCTCAGTCTA | 0.99
28 | TTTTCAACTG | 1.12
29 | CGAGCGTCAG | 1.03
30 | TGCTCCGTTT | 1.24
31 | GTGTTTGATT | 0.992
32 | TATATTCGGG | 1
33 | ATGTCGTCGT | 1.02
34 | GTAGTGCTCG | 1.01
35 | TAAGCGTTAT | 1
36 | CAATTCCAAC | 0.968
37 | TCCCGGTGTT | 1.81
38 | TAACCAGTCG | 1.02
39 | GCTTTTAGCT | 0.983
40 | TTCTTAGTAC | 1
41 | GCTAGACGTC | 0.985
42 | ATAATTGGCT | 1.07
43 | TTGTGTAGAC | 1.02
44 | ACCGCAGTAT | 4.45
45 | GGATTGGTCA | 0.967
46 | AGATTCCT | 1.02

Row | Sequence | switch fluorescence ratio
47 | CCCCTGGTGG | 2.99
48 | AATTTGAAGG | 1.01
49 | CTCAGGGCCC | 1.03
50 | CAGGAGCCTG | 0.975
51 | CGTGGTATGC | 1.04
52 | TCATAGGGAT | 1.02
53 | GGGTGCGCTA | 0.972
54 | TTCTTGTTAG | 0.985
55 | GACGCAAAGG | 2.33
56 | ATGATAGGTA | 0.988
57 | ATCGGATAGA | 1.01
58 | CGAACTATCT | 0.985
59 | GGTGCCCCAG | 1.18
60 | CGCGATAGGG | 1.25
61 | CAGGGTTTG | 1
62 | GTTTGAAGGC | 1.07
63 | GCTGTGGTGT | 1.08
64 | TATCACAGCA | 1.07
65 | GGATGTCTGA | 1.01
66 | CGGCGGTTTC | 0.997
67 | CCATAGGAGA | 1.03
68 | CATGAAAGGC | 1.02
69 | ACATTATT | 1.03

Row | Sequence | switch fluorescence ratio
70 | CGATATCTCC | 1.49
71 | AGGCACCGTG | 1.01
72 | CGGGTATCTT | 0.998
73 | AGAAACTGG | 1.05
74 | GCAATTTCTT | 1.02
75 | CGGTTTGATG | 0.983
76 | ATGGGTGGA | 1.03
77 | CTTCTACACC | 1.07
78 | CGTGTTCCA | 1.02
79 | AAGGTGCTCG | 1.02
80 | CGGTACCGGA | 0.982
81 | CGAGTTCATG | 1.01
82 | TTCAACCTAG | 1.06
83 | TATTCCCTGA | 1.01
84 | CTGGCTTGAG | 0.955
85 | AGGTGAAGAA | 1
86 | ACCTCCGGGG | 1.1
87 | TTCCCATTAC | 3.96
88 | ACAGGGGCGT | 1.05
89 | GAGGTTGTTG | 0.999
90 | GTCACTGCGA | 1.09
91 | ACTACATAG | 1.04
92 | GGTGCACGCA | 1.04

Row | Sequence | switch fluorescence ratio
93 | GGGGTTCGCT | 1.01
94 | CAAATCTCA | 0.974
95 | GTTTGAAAAT | 0.971
96 | TGCGAAAGAC | 1.1
97 | CATCCGAGCG | 1.62
98 | TCAGCAAGG | 3.25
99 | GGAGGGAGC | 0.983
100 | ACTTCTACAT | 1.21
101 | TCGATCAGCG | 1.01
102 | GACTGAGATT | 0.965
103 | AAAGGGTTAT | 0.956
104 | CGTAGTCGCC | 0.982
105 | AGTGTGGTGT | 1.03
106 | GGTGATCGTG | 0.987
107 | GAGGGAGTCT | 1.05
108 | GACAGCCGCT | 1.2
109 | CTAAGCTCAG | 1.04
110 | GACAGCAGTG | 1.02
111 | GGCGGCGATG | 1.04
112 | AGTAAGCCTA | 1
113 | TGCATGAGGG | 1.08
114 | CCGAGGTCTC | 1.39
115 | TCAAAAAGGC | 1.04

Row | Sequence | switch fluorescence ratio
116 | GATAAGGGAC | 1.06
117 | CGTCTAAATT | 1.03
118 | GGTGGCGA | 1.03
119 | GGTTATACCC | 0.99
120 | GAAAACGGAT | 0.994
121 | CAATAGTAAA | 1
122 | AGAGGATTAT | 1
123 | TATCACGTTT | 1.02
124 | GGGCATCG | 0.963
125 | TGTTCCACGT | 1.05
126 | TGAAAGCTTT | 1.03
127 | GGTCTTATTC | 0.96
128 | GGGCGGAGTA | 1.34
129 | ACTTGTGCAA | 1.36
130 | TGTAGGCAAG | 0.974
131 | CGTCGCATCG | 1.01
132 | AATGCGCACG | 1.02
133 | TGCACGGGCC | 1.05
134 | GTTTCATGTA | 0.974
135 | GGCAATGCGG | 1.3
136 | AACATTCCGA | 3.35
137 | TTGTTTGGCG | 0.988
138 | CTGAGGTTCT | 1.05

Row | Sequence | switch fluorescence ratio
139 | AAAGATCGGT | 1.01
140 | ACACGAGAGG | 1.08
141 | GAGACTCTTA | 1.01
142 | AACTTATTAT | 0.999
143 | CTGCAAATGA | 1.52
144 | GGACACGGTT | 0.995
145 | CAAGAGAGAC | 1.02
146 | TAGTCGACAC | 1.03
147 | CTAGTTCCCG | 0.943
148 | AGAGCGGGAG | 0.946
149 | GCAAAGCTTT | 1.01
150 | CTCGAACAGT | 1.04
151 | CTAGTATTAT | 0.958
152 | GTCGAAATAG | 1.52
153 | GTTACCCCAA | 1.12
154 | CTTGAGGATA | 0.998
155 | CCCTGCGTCC | 1.56
156 | ATACTGTTAG | 1.05
157 | ACCATCAAA | 1.01
158 | GGAAATCTCT | 1.04
